Measurements as given in paper PMC6664820, “Novel natural and synthetic inhibitors of solute carriers SGLT1 and SGLT2” (Pharmacology Research & Perspectives, 2019).
The whole screen tested about 1,900 compounds, of which about 40 (2%) showed an effect of 50% or more. The list shows a part of the results.

These compounds were tested against human SGLT1 (hSGLT1) (human, UniProt P13866) (assay: primary screen, percent of control activity; higher = less effect of the substance). Settings: 50 µM.
Parameters: single well
In short: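 Single-point screen at 50 µmol/L in CHO-hSGLT1 cells, with 160 µmol/L 1-NBD-glucose in glucose-free DMEM for 90 min at 37°C. Fluorescence from isopropanol extracts was calibrated, and CHO wild-type uptake was subtracted. Data are percent of uptake without compound.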

Point of comparison: `C/C=C(/C)C(=O)O[C@H]1CC[C@@]2(C)[C@@H]3CC[C@H]4[C@]5(O)C[C@H](O)[C@@]6(O)[C@@H](CN7C[C@@H](C)CC[C@H]7[C@@]6(C)O)[C@]5(O)C[C@@]42O[C@]13O`, “NORMALIZED SGLT1 ACTIVITY (%)” value 86%. Against it:
- C[C@H]1[C@H](C)CC[C@]2(C(=O)O)CC[C@]3(C)C(=CC[C@@H]4[C@@]5(C)CC[C@H](O)C(C)(C)[C@@H]5CC[C@]43C)[C@H]12 — lower, 84%
- COc1ccccc1N1CCN(CCCNc2cc(=O)n(C)c(=O)n2C)CC1.Cl — higher, 115%
- CC(C)(C)C(=O)C(Oc1ccc(Cl)cc1)n1cncn1 (stereo not drawn) — lower, 55%
- CC(=O)OC1CCC2(O)CC1(C)CCC1C2CC1(C)C (stereo not drawn) — higher, 87%
- COc1ccc(C(Cl)=C(c2ccc(OC)cc2)c2ccc(OC)cc2)cc1 — higher, 108%
- CC(NCCc1ccc(O)cc1)C(O)c1ccc(O)cc1.Cl (stereo not drawn) — higher, 109%
- CC(=O)O.Cc1cc2c(C(C)C)c(O)c(O)c(C=O)c2c(O)c1-c1c(C)cc2c(C(C)C)c(O)c(O)c(C=O)c2c1O — higher, 139%
- NCCCCCC(=O)O — higher, 113%
- COc1cc(/C=C/C(=O)O)cc(OC)c1OC — higher, 145%
- CC[C@@]1(O)C[C@H](O[C@H]2C[C@H](N(C)C)[C@H](O[C@H]3C[C@H](O)[C@H](O[C@H]4CCC(=O)[C@H](C)O4)[C@H](C)O3)[C@H](C)O2)c2c(cc3c(c2O)C(=O)c2c(O)cccc2C3=O)[C@H]1C(=O)OC — higher, 120%
- Cc1cc(=O)oc2cc(O)cc(O)c12 — higher, 255%
- CC(=O)O[C@]1(C(C)=O)CC[C@H]2[C@@H]3C=C(Cl)C4=CC(=O)CC[C@]4(C)[C@H]3CC[C@@]21C — higher, 88%
- CCCNC(=O)NS(=O)(=O)c1ccc(Cl)cc1 — higher, 102%
- COC(=O)c1cc(OC)c(=O)c2c(OC)c(OC)ccc2c1 — higher, 257%
- CO[C@H]1/C=C/O[C@@]2(C)Oc3c(C)c(O)c4c(O)c(c5c(nc6cc(C)ccn65)c4c3C2=O)NC(=O)/C(C)=C\C=C\[C@H](C)[C@H](O)[C@@H](C)[C@@H](O)[C@@H](C)[C@H](OC(C)=O)[C@@H]1C — higher, 127%
- Cl.Cl.NNCc1cccc(O)c1 — higher, 149%
- Cn1nnnc1SCC1=C(C(=O)[O-])N2C(=O)C(NC(=O)C(O)c3ccccc3)C2SC1.[Na+] (stereo not drawn) — higher, 150%
- Cc1ccc(S(=O)(=O)NC(=O)NN2CCCCCC2)cc1 — higher, 97%
- CC(C)c1ccc2c(c1O)CC[C@H]1C3=C(CC[C@]21C)C(=O)OC3 — higher, 118%
- Nc1ccc(S(=O)(=O)Nc2ncccn2)cc1 — higher, 116%
- CC(=O)O[C@@H]1CC2C(C)(C)C(=O)CC[C@]2(C)C2CC[C@]3(C)C(=CC(=O)O[C@H]3c3ccoc3)[C@@]21C (stereo partly drawn) — higher, 250%
- CCC[C@@H]1C[C@@H](C(=O)N[C@H]([C@H]2O[C@H](SC)[C@H](O)[C@@H](O)[C@H]2O)[C@H](C)O)N(C)C1.Cl — higher, 123%
- CC(C(=O)O)c1cccc(C(=O)c2ccccc2)c1 (stereo not drawn) — higher, 156%
- CCC(=O)OCC(=O)[C@@]1(OC(=O)CC)[C@@H](C)CC2C3CCC4=CC(=O)C=C[C@]4(C)C3(F)[C@@H](O)C[C@@]21C (stereo partly drawn) — higher, 126%
- Nc1ccc(S(=O)(=O)Nc2ccccn2)cc1 — higher, 97%
- CN(CCOc1ccc(CC2SC(=O)NC2=O)cc1)c1ccccn1.O=C(O)/C=C\C(=O)O (stereo not drawn) — higher, 246%
- C[C@]12CC[C@@H](O)C[C@H]1CCc1ccccc12 — higher, 172%
- CC(C)OC(=O)C(C)(C)Oc1ccc(C(=O)c2ccc(Cl)cc2)cc1 — lower, 59%
- CC(C)CC(NC(=O)OCC1c2ccccc2-c2ccccc21)C(=O)O (stereo in doubt) — higher, 223%
- CCCCCC1C(=O)CCC1CC(=O)OC (stereo not drawn) — higher, 109%
- O=C(O)CCNC(=O)c1ccccc1 — higher, 105%
- COc1cc2c3cc1Oc1cc(ccc1O)C[C@@H]1c4c(cc(OC)c(O)c4Oc4ccc(cc4)C[C@@H]3N(C)CC2)CC[N+]1(C)C.[Cl-] — higher, 96%
- COc1cc(O)c(C(C)=O)c(OC)c1 — higher, 107%
- CCCCC/C=C\C/C=C\C/C=C\C/C=C\CCCC(=O)O — higher, 182%
- Oc1c(Cl)cc(Cl)c2cccnc12 — lower, 48%
- CN(C)CCC=C1c2ccccc2C=Cc2ccccc21.Cl — lower, 50%
- CC[C@H]1OC(=O)[C@H](C)[C@@H](O[C@H]2C[C@@](C)(OC)[C@@H](O)[C@H](C)O2)[C@H](C)[C@@H](O[C@@H]2O[C@H](C)C[C@H](N(C)C)[C@H]2O)[C@](C)(O)C[C@@H](C)/C(=N\OCOCCOC)[C@H](C)[C@@H](O)[C@]1(C)O — higher, 93%
- Cc1coc2ccccc2c1=O — higher, 118%
- CC(=O)OCC(=O)[C@@]1(O)CCC2C3CC[C@@H]4C[C@H](O)CC[C@]4(C)C3C(=O)C[C@@]21C (stereo partly drawn) — lower, 85%
- C[C@@](Cc1ccc(O)c(O)c1)(NN)C(=O)O — higher, 105%
- CC12CCC3C(CC3(C)C)C(C)(CCC1=O)O2 (stereo not drawn) — higher, 105%
- CC(=O)N(O)CCCCCNC(=O)CCC(=O)N(O)CCCCCNC(=O)CCC(=O)N(O)CCCCCN.CS(=O)(=O)O — higher, 94%
- Nc1ccccc1C(=O)CC(N)C(=O)O (stereo not drawn) — higher, 103%
- COc1cc(O)cc(OC)c1OC — higher, 127%
- Cl.Nc1c(Br)cc(Br)cc1CNC1CCC(O)CC1 (stereo not drawn) — higher, 99%
- CO[C@H]1C[C@H](O[C@@H]2/C(C)=C/C[C@@H]3C[C@@H](C[C@]4(CC[C@H](C)[C@@H](C5CCCCC5)O4)O3)OC(=O)[C@@H]3C=C(C)/C(=N/O)[C@H]4OC/C(=C\C=C\[C@@H]2C)[C@]43O)O[C@@H](C)[C@@H]1O — higher, 111%
- Cn1c(=O)[nH]c(=O)c2nc[nH]c21 — higher, 132%
- C=C1C2CC[C@H]3[C@]4(C)C[C@H](OC5OC(CO)C(OS(=O)(=O)[O-])C(OS(=O)(=O)[O-])C5OC(=O)CC(C)C)C[C@@H](C(=O)O)[C@H]4CC[C@]3(C2)[C@H]1O.[K+].[K+] (stereo partly drawn) — higher, 94%
- C[C@]12CCC3c4ccc(OC(=O)c5ccccc5)cc4CCC3C1CCC2=O (stereo partly drawn) — higher, 105%
- COCCc1ccc(OCC(O)CNC(C)C)cc1.O=C(O)C(O)C(O)C(=O)O (stereo not drawn) — higher, 93%
- NC(=O)c1ccc[n+]([C@@H]2O[C@H](COP(=O)([O-])OP(=O)(O)OC[C@H]3O[C@@H](n4cnc5c(N)ncnc54)[C@H](O)[C@@H]3O)[C@@H](O)[C@H]2O)c1 — higher, 98%
- C[C@H]1[C@H](C)CC[C@]2(C(=O)O)CC[C@]3(C)C(=CC[C@@H]4[C@@]5(C)C[C@@H](O)[C@H](O)[C@@](C)(CO)[C@@H]5[C@H](O)C[C@]43C)[C@H]12 — higher, 105%
- COc1cc(O)c2c(c1)C(=O)c1cc(C)cc(O)c1C2=O — higher, 102%
- CNC(=O)CSP(=S)(OC)OC — higher, 92%
- CCC(C)C(NC)C(=O)O (stereo not drawn) — higher, 105%
- N[C@@H](Cc1ccc(O)c(O)c1)C(=O)O — higher, 129%
- CCCCC1=NC2(CCCC2)C(=O)N1Cc1ccc(-c2ccccc2-c2nnn[nH]2)cc1 — higher, 117%
- CN(C)CCc1c[nH]c2ccc(CS(=O)(=O)N3CCCC3)cc12 — higher, 103%
- CCNc1nc(Cl)nc(NC(C)C)n1 — higher, 154%
- COc1ccc(OC)c(C(O)C(C)N)c1.Cl (stereo not drawn) — higher, 98%
- CN(C)CCCO[C@@H]1[C@H]2OC(C)(C)O[C@H]2O[C@@H]1[C@H](O)CO.Cl — higher, 88%
- CC(Cc1cccc(C(F)(F)F)c1)NCCOC(=O)c1ccccc1.Cl (stereo not drawn) — lower, 73%
- CCOc1nc2cccc(C(=O)OC(C)OC(=O)OC3CCCCC3)c2n1Cc1ccc(-c2ccccc2-c2nnn[nH]2)cc1 (stereo not drawn) — lower, 36%
- COc1c2ccoc2cc2oc(=O)ccc12 — higher, 180%
- CN1CCCC(n2nc(Cc3ccc(Cl)cc3)c3ccccc3c2=O)CC1.Cl (stereo not drawn) — lower, 72%
- CC1(C)O[C@]2(C)CC[C@H]1CC2 — higher, 132%
- O=C(NCO)c1cccnc1 — higher, 90%
- C=CC(C)(O)CC/C=C(\C)CCC=C(C)C (stereo not drawn) — higher, 127%
- Cc1c(O)c(O)cc2c1CC=C1[C@@]2(C)CC[C@@]2(C)C3C[C@](C)(C(=O)O)CC[C@]3(C)CC[C@]12C (stereo partly drawn) — higher, 378%
- CCN(CC)CCNC(=O)c1cc(Br)c(N)cc1OC — higher, 91%
- C[C@H]1C(=O)CC[C@@H]2[C@]1(C)CC[C@H]1[C@@]2(C)CC[C@@]2(C)[C@@H]3CC(C)(C)CC[C@]3(C)CC[C@]12C — higher, 102%
- C=C1CCC2C(CC2(C)C)C(=C)CC/C1=N/O (stereo not drawn) — lower, 77%
- O=C(O)c1cccc(O)c1O — higher, 128%
- C[C@@H]1O[C@@H](O[C@H]2[C@H](Oc3cc(O)c4c(=O)cc(-c5ccc(O)cc5)oc4c3)O[C@H](CO)[C@@H](O)[C@@H]2O)[C@H](O)[C@H](O)[C@H]1O — higher, 160%
- CC(C)CCCC(C)C1CCC2C3=CC[C@H]4C[C@@H](O)CC[C@]4(C)C3CC[C@@]21C (stereo partly drawn) — higher, 149%
- CC(=O)O[C@H]1CCC2(C)C(=CCC3C2CCC2(C)C3CC3OC4(CCC(C)CO4)[C@@H](C)C32)C1 (stereo partly drawn) — higher, 109%
- CCn1nc(C(=O)O)c(=O)c2cc3c(cc21)OCO3 — higher, 122%
- CCn1cc(C(=O)O)c(=O)c2cc(F)c(N3CCN(C)CC3)cc21.CS(=O)(=O)O — higher, 163%
- CC(=O)Oc1cc2c(c(C)c1OC(C)=O)CC=C1[C@@]2(C)CC[C@@]2(C)C3C[C@](C)(C(=O)O)CC[C@]3(C)CC[C@]12C (stereo partly drawn) — higher, 149%
- C=CCCCCCCCCCCC/C=C/C(O)COC(C)=O (stereo not drawn) — higher, 118%
- NCCCS(=O)(=O)O — higher, 120%
- O=C(O)/C=C/C(=O)O.O=C1CCCN1CC#CCN1CCCC1 — higher, 145%
- Cc1cc(N)c2ccccc2[n+]1CCCCCCCCCC[n+]1c(C)cc(N)c2ccccc21.[Cl-].[Cl-] — higher, 105%
